Values marked as one replicate rest on one cluster of the flow cell; about a third of the high ones do not repeat.
The sequences below were run on ATP (assay: switch fluorescence ratio, 500 uM ATP over buffer (Cy3 cluster intensity, sum of 5 cycles each) (fold (ratio)); higher = stronger signal-on switching upon ATP binding; sequences stand for … in TCGTCGGCAGCGTCAGATGTGTATAAGAGACAGTTTTTTTTTTTTTTTTTTTTTTTTT…TC). Details: aptamer strand: ATP DNA aptamer (quencher-CACCTGGGGGAGTATTGCGGAGGAAGG + anchor), 100 nM annealed; ATP concentration: 500 uM; one replicate.
In short: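 The fluorescence ratio divides summed target-cycle Cy3 intensity by summed buffer-cycle Cy3 intensity for each cluster and is averaged per switch-domain sequence. Cy3-labelled switching-strand clusters on a modified Illumina MiSeq flow-cell were annealed to 100 nM quencher-labelled ATP aptamer, then imaged in selection buffer and again after 15 min with 500 uM ATP at 22 °C. Five such cycles were run, with NaOH stripping and re-annealing between them, and clusters outside 100-1000 RFU were excluded.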
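Also: ATP exposure 15 min at 22 °C before imaging.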

Sequence | switch fluorescence ratio
ACGCAGGCAA | 2.25
ACGCATTAGG | 1.06
ACGCCAGGGG | 2.96
ACGCCCAGCT | 1.19
ACGCCCGCAT | 1.61
ACGCCCTGCA | 1.03
ACGCCGCTGG | 1.5
ACGCCGGCCA | 1.05
ACGCCGGGAT | 0.998
ACGCCTGTAG | 1.02
ACGCCTGTTT | 1.04
ACGCGCAATC | 3.92
ACGCGCCCTT | 0.937
ACGCGCGCCA | 1.01
ACGCGGGCAC | 1.07
ACGCGGTAGT | 1.03
ACGCGTTTTC | 1.02
ACGCTAAGGT | 1.11
ACGCTAGGTT | 1.03
ACGCTATTTG | 1.19
ACGCTCATTC | 1.29
ACGCTGAATA | 1.21
ACGCTTGGGG | 0.977
ACGGAAACT | 1.12
ACGGAAATCG | 1.05

Sequence | switch fluorescence ratio
ACGGAATGGT | 1.17
ACGGACGGAC | 1.36
ACGGACTGAG | 1.14
ACGGAGCTAG | 3.19
ACGGATCCGT | 0.944
ACGGATGACA | 1.05
ACGGCAATCG | 1.08
ACGGCAGTTG | 1.01
ACGGCATACC | 1.31
ACGGCATGCC | 0.965
ACGGCCAGGT | 1.82
ACGGCCTCTA | 1.02
ACGGCTATGG | 1.1
ACGGCTTAAC | 1.08
ACGGCTTCGG | 1.01
ACGGGAACCA | 1.04
ACGGGAAGGA | 1.01
ACGGGAAGTA | 1.04
ACGGGAGACA | 1.1
ACGGGATAGC | 1.13
ACGGGCATGG | 1
ACGGGCTCTT | 1.04
ACGGGGACCT | 1.1
ACGGGGAGAT | 1.06
ACGGGGGACC | 0.994

Sequence | switch fluorescence ratio
ACGGGTAACA | 1.01
ACGGGTCAGG | 1.03
ACGGGTGGG | 1.07
ACGGTACAGG | 1.45
ACGGTCCCGC | 1.06
ACGGTCTATT | 1.01
ACGGTGCTTT | 1.11
ACGGTGGATT | 0.993
ACGGTGTGAA | 1.02
ACGGTTGAAG | 1.04
ACGGTTTAGC | 0.999
ACGTACGTGC | 1.49
ACGTAGACAG | 1.01
ACGTAGACGG | 1.05
ACGTAGATAA | 1.17
ACGTAGCATT | 3.22
ACGTAGCTTG | 1.11
ACGTAGGATA | 1.13
ACGTATGTG | 1.02
ACGTATTGAC | 1.06
ACGTCACCGT | 1.52
ACGTCATGCT | 1.1
ACGTCGAGTG | 0.996
ACGTCGGGGT | 0.994
ACGTCTAACA | 1.32

Sequence | switch fluorescence ratio
ACGTCTACCC | 1.39
ACGTCTGGG | 1.01
ACGTGACTCT | 1.06
ACGTGAGCGG | 0.967
ACGTGATTAG | 1.04
ACGTGCACGT | 0.986
ACGTGCCGGG | 0.967
ACGTGCTAGC | 1.05
ACGTGCTGAG | 1.01
ACGTGCTGCT | 0.945
ACGTGCTGTT | 1.01
ACGTGCTTTA | 1.01
ACGTGGCTTT | 1
ACGTGGGCGG | 0.983
ACGTGGGGAC | 1.03
ACGTGTAAGT | 0.968
ACGTGTGAAG | 0.991
ACGTGTTCCA | 0.974
ACGTTAACTT | 1.26
ACGTTAAGCC | 1.11
ACGTTACAAT | 1.33
ACGTTCAAGC | 1.14
ACGTTGCGTC | 0.982
ACGTTGTAAC | 0.976
ACGTTTGGGT | 0.984

— the supplement of paper PMC10126150
